Results taken from PMC6919601, “Identification of Plasmodium dipeptidyl aminopeptidase allosteric inhibitors by high throughput screening” (PLoS ONE, 2019).
Screen size: about 110,000 compounds; about 230 (0.21%) showed an effect of 50% or more. Some of the results follow.

Target: DPAP1 (Plasmodium falciparum, UniProt Q8IIJ9)
Experiment: primary screen, percent inhibition; read by cleavage of a fluorogenic dipeptide substrate; higher = more effect of the substance
Parameters: species or system P. falciparum D10 trophozoite lysates; single well
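Also: 30 min substrate incubation versus DMSO and 10 µM JCP410 controls.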

DPAP1, sequence (Q8IIJ9 whole entry, looked up): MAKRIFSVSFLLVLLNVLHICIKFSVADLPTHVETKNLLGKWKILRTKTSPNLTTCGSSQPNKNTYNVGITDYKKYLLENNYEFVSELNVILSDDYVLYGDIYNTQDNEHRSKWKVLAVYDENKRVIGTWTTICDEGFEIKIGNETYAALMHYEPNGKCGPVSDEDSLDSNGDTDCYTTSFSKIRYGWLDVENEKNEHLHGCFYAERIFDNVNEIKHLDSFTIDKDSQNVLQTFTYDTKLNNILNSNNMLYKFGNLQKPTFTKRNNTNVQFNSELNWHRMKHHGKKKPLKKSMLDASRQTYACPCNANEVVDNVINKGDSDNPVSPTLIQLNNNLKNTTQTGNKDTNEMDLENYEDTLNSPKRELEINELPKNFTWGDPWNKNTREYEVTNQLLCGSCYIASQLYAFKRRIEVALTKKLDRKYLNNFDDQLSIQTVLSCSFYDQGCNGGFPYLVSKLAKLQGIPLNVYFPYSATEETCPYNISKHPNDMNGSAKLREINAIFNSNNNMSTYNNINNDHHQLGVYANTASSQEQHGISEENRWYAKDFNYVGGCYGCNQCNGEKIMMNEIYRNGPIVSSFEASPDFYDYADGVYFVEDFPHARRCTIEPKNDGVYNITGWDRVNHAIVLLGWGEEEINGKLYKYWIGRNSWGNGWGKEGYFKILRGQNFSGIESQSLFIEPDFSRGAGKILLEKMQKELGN

Compound	% Inhibition @ 10 uM [%]
Cc1cc2c(n1-c1ccc(C(=O)NCc3ccco3)cc1)CCCC2	-4.16
CN(CCCc1ccco1)S(=O)(=O)c1csc(C(N)=O)c1	-3.98
Cc1ccc(C2CC(C(F)(F)F)n3ncc(C(=O)NCc4c(C)nn(C)c4C)c3N2)cc1 (stereo not shown)	2.32
CCOC(=O)c1c(NC(=O)c2ccccc2)sc(C(=O)N2CCCCC2)c1C	-2.87
CCOc1ccccc1N1CCN(C(=O)c2ccc3c(c2)OCO3)CC1	1.4
O=C(O)CCC(=O)Nc1ccccc1C(=O)NCCc1ccccc1	-0.872
Cc1nnc(NC(=O)CSc2ccc3nnc(CCNS(=O)(=O)c4ccccc4)n3n2)s1	-2.26
O=c1c2ccccc2nc(-c2ccccc2)n1CCCn1ccnc1	2.76
Cc1ccccc1C1C2=C(O)c3ccccc3C2=Nc2c1c(=O)[nH]c(=O)n2C (stereo not shown)	5.65
CCOc1cccc(=O)c2c(C)n(-c3ccc(C)c(C)c3)c(C)c12	-0.711
Cc1nsc2ccc(Cl)cc12	55
CCN(CC)CCCCOc1cccc(C)c1	1.87
S=C(Nc1ccccc1)N1CCCCCC1	2.62
Clc1ccc(CNC23CN4CN(CN(C4)C2)C3)c(Cl)c1	-0.756
O=C(Cc1ccc(F)cc1)N1CCC(c2nc(O)c3nnn(Cc4ccsc4)c3n2)CC1	5.35
COc1ccc(CN2CCCCC2CO)c(OC)c1 (stereo not shown)	3.65
COCc1cc(O)n2nc(SCc3ccccc3)nc2n1	2.31
COc1cc(OC)cc(C(=O)N2CCN(C(=O)c3ccccc3F)CC2)c1	4.55
Fc1ccc(N2CCN(Cc3ccccc3Br)CC2)cc1	-6.47
COc1cc(CN2CCN(Cc3ccncc3)CC2)cc(OC)c1O	0.131
COc1ccc(C(=O)/C=C/c2ccc(OC)c(CN3CCOCC3)c2)cc1	1.52
CCOC(=O)c1c(C(=O)OCC)c(C)n(CCc2c[nH]c3ccccc23)c1C	0.238

Compound	% Inhibition @ 10 uM [%]
COc1ccc(C2=NN(S(C)(=O)=O)C(c3cc4ccc(OC)cc4nc3Cl)C2)cc1 (stereo not shown)	-0.85
CN1C(=O)C2Cc3c([nH]c4ccccc34)C(c3ccc([N+](=O)[O-])cc3)N2C1=S (stereo not shown)	-1.29
COc1cc(OC)cc(C(=O)N2CCN(C3CCC(c4ccccc4)CC3)CC2)c1 (stereo not shown)	-3.37
CN1CCN(S(=O)(=O)c2cccnc2Nc2cccc(C(F)(F)F)c2)CC1	-1.73
CN(C(=O)CCc1nc(CN2CCN(C(=O)c3ccc4c(c3)OCO4)CC2)no1)C1CCCCC1	-0.717
Cc1cccc(C(=O)NCCc2ccc(S(N)(=O)=O)cc2)c1	-14.6
O=C(c1cccs1)N1CCC(c2ccccc2)C1 (stereo not shown)	-2.87
CCc1ccc(Oc2nc3ccccn3c(=O)c2/C=C(\C#N)C(=O)N2CCOCC2)cc1	-0.828
O=C(Cn1cc(SCc2ccc(F)cc2)c2ccccc21)N1CCOCC1	4.54
Cc1ccc(-n2nc(C)c3c(C)c(CCC(=O)NC(C)(C)C)c(C)nc32)cc1C	-8.02
FC(F)(F)c1ccccc1CN1CCN(C/C=C/c2ccccc2)CC1	-1.92
Cc1cccc(Cn2cnc3c(nnn3Cc3ccccc3F)c2=O)c1	-0.431
COc1ccc(-c2cc(C(=O)N3CCOCC3)c3c(-c4ccc(Cl)cc4)[nH]nc3n2)cc1	11.7
CC(C)Cn1c(=O)c2ccccc2n2c(CCC(=O)NC3CCCCC3)nnc12	0.981
CCN1CCC(NCCc2ccc(Cl)cc2Cl)CC1	2.71
Cc1ccc2onc(CNC(=O)NCCN(C)C3CCCCC3)c2c1	-1.11
CC(C)c1ccc(S(=O)(=O)c2cnc(S)nc2N)cc1	6.41
CCO/C(O)=C1\C(C)=Nc2ncnn2C1c1c[nH]c2ccccc12 (stereo not shown)	-5.51
Cc1ccc(S(=O)(=O)Cc2ccc(C(=O)NCc3cccs3)o2)cc1	2.14
Cc1cccc(OCc2nc3c4c5c(sc4ncn3n2)C(C)(C)NC(C)(C)C5)c1C	-3.28
CN(CC(=O)Nc1ccc2c(c1)OCO2)S(=O)(=O)c1ccccc1	-5.98
CS(=O)(=O)C1=NN2C(=N)/C(=C\c3ccc(-c4ccccc4Cl)o3)C(=O)N=C2S1	0.163

Compound	% Inhibition @ 10 uM [%]
Cc1ccc(N2CCN(Cc3[nH]cnc3C)CC2)cc1	1.9
CCOC(=O)N1CCc2c(sc(NC(=O)CN)c2C(=O)c2ccccc2Cl)C1	-2.45
Cc1ccc2cc(C=O)c(O)nc2c1	2.79
O=C(c1cccs1)N1CCN(C(=O)c2cccs2)CC1	-2.42
O=C(O)c1cccc(-n2c(=O)c3cc4c(=O)n(-c5cccc(C(=O)O)c5)c(=O)c4cc3c2=O)c1	3.47
Cc1ccc(CCNC(=O)CN2C(=O)CSc3ncccc32)cc1	4.22
CCN(CC)C(=O)c1ccc(CN2CCOCC2)o1	-4.32
O=C(O)Cn1cc2c(n1)CCCC2	3.24
OC1=C2C(=Nc3nc(-c4ccccc4)nn3C2c2ccccc2)CCC1 (stereo not shown)	-7.4
CCN1CCN(c2nc3c(c(=O)n(C)c(=O)n3C)n2CC(O)c2ccccc2)CC1 (stereo not shown)	-1.11
CCOCCCNC(=O)c1c(NC(=O)Cc2coc3ccc(CC)cc23)sc2c1CCC2	-0.671
CCCCN/C(C)=C\S(=O)(=O)c1ccccc1	-3.92
O=C(Nc1ccc(F)cc1F)c1cccc(Br)c1	4.22
CCC(Nc1ccc([N+](=O)[O-])cc1[N+](=O)[O-])C(=O)O (stereo not shown)	-4.01
COc1cc(OC)cc(-n2nnc(-c3nsc(NC(=O)c4ccc(C)cc4)n3)c2C)c1	3.95
O=C1N=C(N2CCCCC2)S/C1=C\c1ccco1	-1.78
CNC(=O)c1cc2c(=O)n3cccc(C)c3nc2n(CCOC)c1=N	-1.47
O=C(O)c1nccnc1C(=O)Nc1ccccc1[N+](=O)[O-]	-7.87
CCc1c(C)c2ccc3c(c2oc1=O)CN(c1cc(C)ccn1)CO3	-1.28
C/C(=C\C(=O)Nc1ccccn1)Nc1ccccn1	3.76
